{"source": "PubChem BioAssay AID686978", "about": "(National Center for Advancing Translational Sciences (NCATS), 2013)", "note": "Screen size: about 420,000 compounds; about 64,000 (15%) were called active. This list was built around the results that the source calls inconclusive (neither active nor inactive); the mix of calls is not that of the screen. Calls come from the whole dose curve; as a rule, active = well fitted inhibition curve with a large enough effect; inconclusive = small, poorly fitted or top-dose-only effect; inactive = flat fitted curve, though single readings scatter. Potencies of inconclusive entries are left out as doubtful fits. % is set by controls: 0 for no effect and ±100 for the full control effect; potency is the fitted concentration of half-maximal effect; tags give direction and shape of the fitted curve."}
{"test": "qHTS for Inhibitors of human tyrosyl-DNA phosphodiesterase 1 (TDP1): qHTS in cells in absence of CPT; note: nearly all actives have a fitted effect of over 55% in size", "details": "DT40 Tdp1-/- hTDP1 cells, no CPT, ATP luminescence, 48 h; activity change, negative = growth inhibition: at 46.2 µM (top of the series) unless noted", "outline": "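No-CPT arm: Tdp1-/-;hTDP1 DT40 cells (400/well) plus compounds, incubated ≥48 hr at 37 °C. Readout CellTiter-Glo luminescence.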"}
{"smiles": "Cc1ccc(C(=O)Nc2ccon2)cc1S(=O)(=O)N1CCOCC1", "Potency": "inactive"}
{"smiles": "CC(=O)Nc1ccc(NC(=O)/C(Cl)=C/c2ccccc2)cc1", "activity change, negative = growth inhibition": "inconclusive: -32% [inhibitor]"}
{"smiles": "COC(=O)c1ccc2nc(-c3ccc(Cl)cc3)c(Cc3ccc(OC)cc3C)n2c1", "Potency": "inconclusive [inhibitor, single point]"}
{"smiles": "Clc1cccc(Cc2c(C3CCCCC3)nc3ccc(Cl)cn23)c1", "Potency": "inconclusive [inhibitor, single point]"}
{"smiles": "O=C(c1ccc(F)cc1)N1CCC(c2nc3ccccc3s2)CC1", "Potency": "inconclusive [inhibitor, single point]"}
{"smiles": "c1ccc(-n2cnc3ccccc32)cc1", "activity change, negative = growth inhibition": "inconclusive: -30.6% [inhibitor]"}
{"smiles": "COc1cc(C=NNc2ccccc2)ccc1OC(=O)c1ccccc1", "Potency": "active: 18.4 µM"}
{"smiles": "Cc1ccccc1NC(=O)Oc1cccc(OC(=O)c2ccccc2)c1", "Potency": "inactive"}
{"smiles": "Cc1ccc(CNC(=O)c2cc(-c3ccc(C)cc3)nc3n[nH]c(-c4cccc([N+](=O)[O-])c4)c23)cc1", "Potency": "inconclusive [inhibitor, partial curve]"}
{"smiles": "CC1CCN(S(=O)(=O)c2ccc3c(c2)N(CC(=O)NCCCN2CCCCC2)C(=O)CS3)CC1", "Potency": "inactive"}
{"smiles": "COc1ccc(NC2=C(c3ccccc3)C(=O)c3ccccc32)cc1Cl", "Potency": "inconclusive [inhibitor, partial curve]"}
{"smiles": "COc1ccc([N+](=O)[O-])cc1NC(=O)CC(c1ccccc1)c1ccccc1", "Potency": "inconclusive [inhibitor, single point]"}
{"smiles": "CC(=O)N1CCN(C(=O)OC2CC3CC2[C@H]2CCCCN2C3=O)CC1", "note": "(some centres undefined)", "Potency": "inactive"}
{"smiles": "FC(F)(F)c1cc(-c2ccccc2)nc(-n2cc(Cl)cn2)n1", "Potency": "inconclusive [inhibitor, single point]"}
{"smiles": "COc1ccc(N(C)C(=O)c2cn(CC(C)C)c(=O)c3cc(OC)c(OC)cc23)c(OC)c1", "Potency": "inactive"}
{"smiles": "CCc1nnc(NC(=O)CSc2nnc3c(C)cc4c(C)ccc(C)c4n23)s1", "Potency": "active: 4.61 µM"}
{"smiles": "CC(C)c1ccc(N(CC(=O)NCc2ccco2)C(=O)CCC(=O)Nc2ccccn2)cc1", "Potency": "inactive"}
{"smiles": "Cc1csc2c(N3CCN(C(=O)c4ccc(C(C)(C)C)cc4)CC3)ncnc12", "Potency": "active: 4.11 µM"}
{"smiles": "CNC(=S)N(CCc1c(C)[nH]c2ccc(C)cc12)Cc1ccc(OC)c(OC)c1", "Potency": "inconclusive [inhibitor, single point]"}
{"smiles": "CCCCOC(=O)C1=C(C)NC(=O)NC1c1ccccc1", "note": "(centres undefined)", "Potency": "inactive"}
{"smiles": "CCCCCCn1cc(CN(C)C2CN(Cc3cn(CCCCCC)nn3)S(=O)(=O)C2)nn1", "note": "(centres undefined)", "Potency": "inconclusive [inhibitor, partial curve]"}
{"smiles": "COc1ccc(CN(C)CC(=O)Nc2ccccc2C(F)(F)F)c(OC)c1", "Potency": "inactive"}
{"smiles": "Nc1ccc(-c2n[nH]c(=O)c3ccccc23)cc1N", "Potency": "inconclusive [inhibitor, single point]"}
{"smiles": "Cc1cc(N/N=C/c2cccc(F)c2)nc(NCc2ccccc2)n1", "Potency": "active: 13 µM"}
{"smiles": "Cc1nn(-c2cccc(Cl)c2)c(Cl)c1/C=N/NC(=O)c1cccnc1", "Potency": "inconclusive [inhibitor, single point]"}
{"smiles": "CNc1oc(-c2cccs2)nc1S(=O)(=O)c1ccccc1", "Potency": "inactive"}
{"smiles": "O=C(O)c1ccccc1NC(c1ccccc1)c1ccc(Cl)cc1", "note": "(centres undefined)", "Potency": "inconclusive [inhibitor, single point]"}
{"smiles": "O=C(/C=C/c1ccc(Cl)c([N+](=O)[O-])c1)c1ccc(O)cc1", "Potency": "active: 4.61 µM"}
{"smiles": "c1ccc(OCCn2cnc3ccccc32)cc1", "Potency": "inconclusive [inhibitor, partial curve, poor fit]"}
{"smiles": "CCOc1ccc(CCNC(=O)CCCn2nc(C)c3c(C)n(-c4ccccc4)nc3c2=O)cc1", "Potency": "inactive"}
{"smiles": "CS(=O)c1ccc(/C=C2\\C=Cc3ccccc32)cc1", "note": "(centres undefined)", "Potency": "active: 20 µM"}
{"smiles": "CSc1nnc(-c2cccn(Cc3cccc(Cl)c3)c2=O)o1", "Potency": "inconclusive [inhibitor, single point]"}
{"smiles": "Cc1nnc(SCC(=O)Nc2nc3ccccc3s2)n(N)c1=O", "Potency": "inactive"}
{"smiles": "Cc1onc(-c2ccccc2Cl)c1C(=O)OCc1cnc(Cl)s1", "Potency": "inconclusive [inhibitor, single point]"}
{"smiles": "O=C(N/N=C/c1ccc(Sc2ccccn2)o1)c1cc2ccccc2cc1O", "Potency": "inactive"}
{"smiles": "C/C(=N\\N1CCN(C2c3ccccc3-c3ccccc32)CC1)c1ccncc1", "Potency": "active: 16.4 µM"}
{"smiles": "Cc1onc(-c2c(Cl)cccc2Cl)c1C(N)=S", "Potency": "inactive"}
{"smiles": "CCOc1ccc2nc(N(CCN(C)C)C(=O)c3cc4ccccc4cc3OC)sc2c1", "Potency": "inconclusive [inhibitor, single point]"}
{"smiles": "CCOc1ccc(S(=O)(=O)NCCc2c(C)[nH]c3c(Cl)cccc23)cc1C", "Potency": "inconclusive [inhibitor, single point]"}
{"smiles": "CCCCCCCCN1C(=O)[C@H](CC(=O)NCCCCc2ccccc2)C[C@@]2(C(=O)OCC)CCCC=C12", "Potency": "inconclusive [inhibitor, single point]"}
{"smiles": "COc1cc(CNC2CCCC2)c(Br)cc1OCc1ccccc1", "Potency": "active: 16.4 µM"}
{"smiles": "CCOC(=O)[C@H]1[C@H]2COc3ccc(Cl)cc3[C@@H]2N2C(=O)c3ccc(Cl)cc3NC(=O)[C@@]12C", "Potency": "active: 18.4 µM"}
{"smiles": "Nc1ncnc(Sc2ccc(Cl)cc2)c1[N+](=O)[O-]", "Potency": "active: 5.8 µM"}
{"smiles": "CC/C(=N\\NC(=S)Nc1cccc(C)c1)c1ccccc1", "Potency": "active: 5.17 µM"}
{"smiles": "CCN(C(=O)C(C)Sc1ccc(S(=O)(=O)N2CCOCC2)cn1)c1ccccc1", "note": "(centres undefined)", "Potency": "active: 18.4 µM"}
{"smiles": "CCOC(=O)C1(CCc2ccccc2)CCN(Cc2cc(OC)c(OC)cc2OC)CC1", "Potency": "active: 20.6 µM"}
{"smiles": "O=C(CN1CCN(C(=O)c2ccccc2)CC1)NC(=O)NCCC1=CCCCC1", "Potency": "inconclusive [inhibitor, partial curve, poor fit]"}
{"smiles": "CCOC(=O)N1CCN(S(=O)(=O)CCNC(=O)c2ccc(OC)cc2)CC1", "Potency": "inactive"}
{"smiles": "CCN(C(=S)NCc1ccccc1)c1cccc2ccccc12", "Potency": "inactive"}
{"smiles": "CCCN1CCN(CC2=C(C(=O)OCC)C(c3ccc(OC(C)C)cc3)NC(=O)N2)CC1", "note": "(centres undefined)", "Potency": "inconclusive [inhibitor, single point]"}
{"smiles": "CNC(=O)COC(=O)c1cc(NC(=O)c2ccco2)c(OC)c(OC)c1", "Potency": "inconclusive [inhibitor, partial curve, poor fit]"}
{"smiles": "O=C(CCN1CCN(Cc2ccccc2)CC1)NNC(=O)c1ccc(Cl)c(Cl)c1", "Potency": "inconclusive [inhibitor, single point]"}
{"smiles": "CCCSc1nc2c([nH]1)c(=O)n(C)c(=S)n2C", "Potency": "inactive"}
{"smiles": "CCc1ccc(/C=C2/C(=O)N(CC)C(=S)N2C)s1", "Potency": "inactive"}
{"smiles": "CC(=O)Nc1ccc(NC(=O)C2CCC(CNS(=O)(=O)c3cccc4nsnc34)CC2)cc1", "note": "(centres undefined)", "Potency": "inconclusive [inhibitor, single point]"}
{"smiles": "COC(=O)c1ccccc1NC(=O)c1sc(Cl)nc1C", "Potency": "inconclusive [inhibitor, partial curve]"}
{"smiles": "OCc1ccccc1-c1cnc2sc(NCc3ccc(F)cc3)nn12", "Potency": "inconclusive [inhibitor, partial curve]"}
{"smiles": "Cc1ccc(S(=O)(=O)NC(CC(=O)O)c2ccccc2)cc1", "note": "(centres undefined)", "Potency": "inactive"}
{"smiles": "COc1ccc(-c2csc(NCCc3nc4cc(Cl)c(N5CCCCC5)cc4n3CCOCCO)n2)cc1", "Potency": "active: 9.2 µM"}
{"smiles": "O=C(N/N=C/C(Br)=C/c1ccccc1)C1CC1", "Potency": "active: 13 µM"}
{"smiles": "CC1=NN(c2ccc(C)cc2C)C(=O)C1C(c1ccccc1O)C1C(=O)N(c2ccc(C)cc2C)N=C1C", "note": "(centres undefined)", "Potency": "inactive"}
{"smiles": "COC(=O)N/N=C/c1cn(CCCOc2ccc(C)cc2)c2ccccc12", "Potency": "inconclusive [inhibitor, single point]"}
{"smiles": "COc1ccccc1Cn1c(=S)[nH]c2cc(C(=O)NCC3CCCO3)ccc2c1=O", "note": "(centres undefined)", "Potency": "inconclusive [inhibitor, single point]"}
{"smiles": "COc1cc(NC(=O)C(=O)NNC(=O)C2CCCCC2)c(OC)cc1Cl", "Potency": "inconclusive [inhibitor, partial curve]"}
{"smiles": "Cc1ccn2c(=O)c(C(=O)NC3CCCCC3C)c(O)nc2c1", "note": "(centres undefined)", "Potency": "inconclusive [inhibitor, single point]"}
{"smiles": "CCC(C)NC(=O)C1CCCN(S(=O)(=O)c2ccc3c(c2)CC(C)N3C(C)=O)C1", "note": "(centres undefined)", "Potency": "inconclusive [inhibitor, partial curve, poor fit]"}
{"smiles": "O=C(NCc1ccccc1F)c1cccc(S(=O)(=O)N2CCCCCC2)c1", "Potency": "inactive"}
{"smiles": "Cc1ccc2ccc(S(=O)(=O)NCc3ccco3)cc2c1", "Potency": "inconclusive [inhibitor, single point]"}
{"smiles": "CC(C)Oc1ccc(CNC(=O)c2ccc3c(c2)N(C)CCS3)cc1", "Potency": "inconclusive [inhibitor, single point]"}
{"smiles": "NNc1nc(-c2ccccc2Cl)nc2sc3c(c12)CCCC3", "Potency": "inconclusive [inhibitor, single point]"}
{"smiles": "S=C(NCc1ccccc1)Nc1ccc(Oc2ccccc2)cc1", "Potency": "inconclusive [inhibitor, single point]"}
{"smiles": "Cc1ccc(-c2noc(-c3ccccc3C(=O)N3CCOCC3)n2)cc1", "Potency": "inconclusive [inhibitor, partial curve, poor fit]"}
{"smiles": "CCc1nc(-c2ccc(-c3ccc(OC)cc3)nc2OC)no1", "Potency": "inconclusive [inhibitor, single point]"}
{"smiles": "CC(=O)Nc1cc(-c2ccncc2)cn2c(-c3ccccc3)cnc12", "Potency": "active: 16.4 µM"}
